Source: PMC6128653
Read-outs that look alike come from different tables or passages of the source. These are yes or no findings as the source states them, for the method shown. For part of these data: In cells and extracts the contact can be indirect. Some entries that bind do so weakly or less than the wild type. Tags and fused reporters may be left off the sequences shown. Each block holds one molecule with its values, some of them ahead of it.

Amino acid sequences for entries named in this document (tags omitted).
UniProt A5D8V7: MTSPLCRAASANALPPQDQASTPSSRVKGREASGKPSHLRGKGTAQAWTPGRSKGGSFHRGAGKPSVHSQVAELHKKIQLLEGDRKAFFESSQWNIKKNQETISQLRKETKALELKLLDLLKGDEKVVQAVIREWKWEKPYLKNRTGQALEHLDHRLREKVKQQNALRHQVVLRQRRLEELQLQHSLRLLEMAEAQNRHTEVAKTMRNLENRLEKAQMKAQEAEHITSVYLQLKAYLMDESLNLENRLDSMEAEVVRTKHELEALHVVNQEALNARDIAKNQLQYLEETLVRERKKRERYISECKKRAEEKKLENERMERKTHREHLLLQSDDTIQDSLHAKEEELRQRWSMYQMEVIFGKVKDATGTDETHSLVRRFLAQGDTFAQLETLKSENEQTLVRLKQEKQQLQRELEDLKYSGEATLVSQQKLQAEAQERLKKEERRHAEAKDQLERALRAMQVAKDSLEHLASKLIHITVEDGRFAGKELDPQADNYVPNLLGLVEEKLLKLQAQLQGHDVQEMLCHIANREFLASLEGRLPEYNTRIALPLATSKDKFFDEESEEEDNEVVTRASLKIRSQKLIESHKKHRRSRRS

Assays:
[1] = target: T1, CCDC114, yeast two-hybrid fusion (human) (UniProt Q96M63); assay: two-hybrid; binary yeast two-hybrid; reporter genes HIS3 and ADE2 (growth on SD-LWAH) and LacZ (β-galactosidase filter lift assay)
T1 sequence: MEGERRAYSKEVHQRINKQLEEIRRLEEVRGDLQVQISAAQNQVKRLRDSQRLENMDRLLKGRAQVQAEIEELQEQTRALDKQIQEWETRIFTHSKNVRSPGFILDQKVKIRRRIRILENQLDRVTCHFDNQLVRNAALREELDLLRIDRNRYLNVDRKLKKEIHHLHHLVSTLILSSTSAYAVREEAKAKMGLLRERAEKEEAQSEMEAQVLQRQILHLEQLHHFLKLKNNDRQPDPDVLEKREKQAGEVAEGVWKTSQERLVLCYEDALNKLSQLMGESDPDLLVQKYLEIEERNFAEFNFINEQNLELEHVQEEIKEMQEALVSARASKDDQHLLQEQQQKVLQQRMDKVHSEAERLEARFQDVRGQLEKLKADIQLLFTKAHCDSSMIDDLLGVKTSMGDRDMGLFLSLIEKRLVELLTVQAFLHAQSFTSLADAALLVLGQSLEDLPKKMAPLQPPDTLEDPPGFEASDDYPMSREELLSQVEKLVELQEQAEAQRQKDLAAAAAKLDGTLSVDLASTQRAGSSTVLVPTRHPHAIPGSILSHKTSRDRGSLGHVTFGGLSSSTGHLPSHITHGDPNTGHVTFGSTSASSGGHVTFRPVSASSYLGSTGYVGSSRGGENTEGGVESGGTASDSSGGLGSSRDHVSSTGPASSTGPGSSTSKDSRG

[2] = target: T2, MNS1 (meiosis specific nuclear structural 1 protein), myc- or FLAG-tagged, expressed in HEK293 cells (human) (UniProt Q8NEH6); assay: co-IP; myc- and FLAG-tagged proteins co-expressed in HEK293 cells; lysis in 50 mM Tris-Cl pH 8.0, 150 mM NaCl, 1% IGEPAL, 0.5 mM EDTA, 10% glycerol; rabbit antibody overnight at 4°C, MagSi/protein A beads; blot with mouse anti-myc or anti-FLAG
T2 sequence: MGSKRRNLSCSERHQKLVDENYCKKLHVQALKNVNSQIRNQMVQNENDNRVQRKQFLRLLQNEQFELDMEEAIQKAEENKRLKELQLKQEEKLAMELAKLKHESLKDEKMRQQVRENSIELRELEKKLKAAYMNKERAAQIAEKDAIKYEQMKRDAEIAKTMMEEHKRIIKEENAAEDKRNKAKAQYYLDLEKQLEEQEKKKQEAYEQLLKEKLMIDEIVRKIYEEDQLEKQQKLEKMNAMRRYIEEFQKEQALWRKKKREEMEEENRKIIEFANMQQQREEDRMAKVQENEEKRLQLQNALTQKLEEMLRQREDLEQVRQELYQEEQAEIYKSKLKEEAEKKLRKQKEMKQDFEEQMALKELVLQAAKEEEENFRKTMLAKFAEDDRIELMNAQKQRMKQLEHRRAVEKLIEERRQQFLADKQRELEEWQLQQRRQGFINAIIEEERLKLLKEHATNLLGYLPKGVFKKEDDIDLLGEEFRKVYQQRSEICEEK

[3] = target: T1, CCDC114, yeast two-hybrid fusion (human); assay: two-hybrid; binary yeast two-hybrid; reporter genes HIS3 and ADE2 (growth on SD-LWAH) and LacZ (β-galactosidase filter lift assay); remark: listed apart in the source
[4] = target: T3, CCDC114 (ODA docking complex component), myc- or FLAG-tagged, expressed in HEK293 cells (human) (UniProt Q96M63); assay: co-IP; myc- and FLAG-tagged proteins co-expressed in HEK293 cells; lysis in 50 mM Tris-Cl pH 8.0, 150 mM NaCl, 1% IGEPAL, 0.5 mM EDTA, 10% glycerol; rabbit antibody overnight at 4°C, MagSi/protein A beads; blot with mouse anti-myc or anti-FLAG
T3 sequence: T1 sequence

[5] = target: MNS1, yeast two-hybrid fusion (human) (UniProt Q8NEH6); assay: two-hybrid; binary yeast two-hybrid; reporter genes HIS3 and ADE2 (growth on SD-LWAH) and LacZ (β-galactosidase filter lift assay)

Molecule: CCDC151, yeast two-hybrid fusion (from UniProt A5D8V7 1-595)
binding [1]: binds

B2: DNAI1 (ODA protein), myc- or FLAG-tagged, expressed in HEK293 cells (protein, UniProt Q9UI46 1-699)
chain: MIPASAKAPHKQPHKQSISIGRGTRKRDEDSGTEVGEGTDEWAQSKATVRPPDQLELTDAELKEEFTRILTANNPHAPQNIVRYSFKEGTYKPIGFVNQLAVHYTQVGNLIPKDSDEGRRQHYRDELVAGSQESVKVISETGNLEEDEEPKELETEPGSQTDVPAAGAAEKVTEEELMTPKQPKERKLTNQFNFSERASQTYNNPVRDRECQTEPPPRTNFSATANQWEIYDAYVEELEKQEKTKEKEKAKTPVAKKSGKMAMRKLTSMESQTDDLIKLSQAAKIMERMVNQNTYDDIAQDFKYYDDAADEYRDQVGTLLPLWKFQNDKAKRLSVTALCWNPKYRDLFAVGYGSYDFMKQSRGMLLLYSLKNPSFPEYMFSSNSGVMCLDIHVDHPYLVAVGHYDGNVAIYNLKKPHSQPSFCSSAKSGKHSDPVWQVKWQKDDMDQNLNFFSVSSDGRIVSWTLVKRKLVHIDVIKLKVEGSTTEVPEGLQLHPVGCGTAFDFHKEIDYMFLVGTEEGKIYKCSKSYSSQFLDTYDAHNMSVDTVSWNPYHTKVFMSCSSDWTVKIWDHTIKTPMFIYDLNSAVGDVAWAPYSSTVFAAVTTDGKAHIFDLAINKYEAICNQPVAAKKNRLTHVQFNLIHPIIIVGDDRGHIISLKLSPNLRKMPKEKKGQEVQKGPAVEIAKLDKLLNLVREVKIKT
binding [2]: no binding

B4: CCDC114 (ODA docking complex component), myc- or FLAG-tagged, expressed in HEK293 cells (protein, UniProt Q96M63 1-670)
chain: T1 sequence
binding [2]: binds

B5: CCDC114, yeast two-hybrid fusion (protein, UniProt Q96M63 1-670)
chain: T1 sequence
binding [3]: binds

More lines, now with the values ahead:

binding [2]: no binding
B1: DNAI2 (ODA protein), myc- or FLAG-tagged, expressed in HEK293 cells (protein, UniProt Q9GZS0 1-605)
chain: MEIVYVYVKKRSEFGKQCNFSDRQAELNIDIMPNPELAEQFVERNPVDTGIQCSISMSEHEANSERFEMETRGVNHVEGGWPKDVNPLELEQTIRFRKKVEKDENYVNAIMQLGSIMEHCIKQNNAIDIYEEYFNDEEAMEVMEEDPSAKTINVFRDPQEIKRAATHLSWHPDGNRKLAVAYSCLDFQRAPVGMSSDSYIWDLENPNKPELALKPSSPLVTLEFNPKDSHVLLGGCYNGQIACWDTRKGSLVAELSTIESSHRDPVYGTIWLQSKTGTECFSASTDGQVMWWDIRKMSEPTEVVILDITKKEQLENALGAISLEFESTLPTKFMVGTEQGIVISCNRKAKTSAEKIVCTFPGHHGPIYALQRNPFYPKNFLTVGDWTARIWSEDSRESSIMWTKYHMAYLTDAAWSPVRPTVFFTTRMDGTLDIWDFMFEQCDPTLSLKVCDEALFCLRVQDNGCLIACGSQLGTTTLLEVSPGLSTLQRNEKNVASSMFERETRREKILEARHREMRLKEKGKAEGRDEEQTDEELAVDLEALVSKAEEEFFDIIFAELKKKEADAIKLTPVPQQPSPEEDQVVEEGEEAAGEEGDEEVEEDLA

binding [2]: no binding
B3: DNAL1 (ODA protein), myc- or FLAG-tagged, expressed in HEK293 cells (protein, UniProt Q4LDG9 1-190)
chain: MAKATTIKEALARWEEKTGQRPSEAKEIKLYAQIPPIEKMDASLSMLANCEKLSLSTNCIEKIANLNGLKNLRILSLGRNNIKNLNGLEAVGDTLEELWISYNFIEKLKGIHIMKKLKILYMSNNLVKDWAEFVKLAELPCLEDLVFVGNPLEEKHSAENNWIEEATKRVPKLKKLDGTPVIKGDEEEDN

binding [4]: binds
B6: MNS1 (meiosis specific nuclear structural 1 protein), myc- or FLAG-tagged, expressed in HEK293 cells (protein, UniProt Q8NEH6 1-495)
chain: T2 sequence

binding [3]: binds
binding [5]: binds
B7: MNS1, yeast two-hybrid fusion (protein, UniProt Q8NEH6 1-495)
chain: T2 sequence
